Experimental data published in US11773160 (ANAVEON, dated 2023).

T1: trimeric IL-2 receptor on HEK-Blue IL-2 reporter cells (UniProt P01589 22-272; P14784 27-551; P31785 23-369, limits assumed)
T1 sequence (looked up) 1: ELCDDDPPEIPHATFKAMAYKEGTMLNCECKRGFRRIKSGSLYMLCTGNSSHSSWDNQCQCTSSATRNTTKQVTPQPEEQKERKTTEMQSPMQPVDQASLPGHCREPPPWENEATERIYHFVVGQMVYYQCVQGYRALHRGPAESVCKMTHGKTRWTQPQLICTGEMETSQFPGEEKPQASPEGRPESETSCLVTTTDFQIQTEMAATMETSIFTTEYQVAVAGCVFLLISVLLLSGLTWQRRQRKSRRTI
T1 sequence (looked up) 2: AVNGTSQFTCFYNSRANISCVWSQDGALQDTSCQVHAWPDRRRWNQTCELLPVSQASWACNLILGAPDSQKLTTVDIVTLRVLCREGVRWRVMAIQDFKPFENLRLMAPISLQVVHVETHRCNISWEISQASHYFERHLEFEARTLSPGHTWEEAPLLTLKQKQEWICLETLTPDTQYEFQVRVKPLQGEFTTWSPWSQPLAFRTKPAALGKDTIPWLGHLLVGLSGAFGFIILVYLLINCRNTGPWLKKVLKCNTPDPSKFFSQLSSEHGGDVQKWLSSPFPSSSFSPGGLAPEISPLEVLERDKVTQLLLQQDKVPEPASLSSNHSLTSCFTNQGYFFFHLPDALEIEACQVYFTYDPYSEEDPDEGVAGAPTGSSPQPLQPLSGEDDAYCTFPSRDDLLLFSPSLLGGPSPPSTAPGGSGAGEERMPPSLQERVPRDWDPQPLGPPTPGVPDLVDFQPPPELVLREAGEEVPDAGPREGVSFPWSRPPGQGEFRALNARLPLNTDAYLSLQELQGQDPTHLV
T1 sequence (looked up) 3: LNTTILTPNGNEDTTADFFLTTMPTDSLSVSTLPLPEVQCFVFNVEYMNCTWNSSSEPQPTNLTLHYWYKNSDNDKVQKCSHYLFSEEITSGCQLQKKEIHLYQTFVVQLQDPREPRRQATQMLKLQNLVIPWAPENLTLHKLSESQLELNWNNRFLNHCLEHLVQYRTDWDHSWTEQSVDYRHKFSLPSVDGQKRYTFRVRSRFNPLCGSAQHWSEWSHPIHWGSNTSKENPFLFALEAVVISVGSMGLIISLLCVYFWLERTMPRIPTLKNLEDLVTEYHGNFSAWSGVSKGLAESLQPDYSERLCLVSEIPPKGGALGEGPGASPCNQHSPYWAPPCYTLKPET

T2: IL-2R on murine splenocytes (C57BL/6)
T2 sequence (P01590 whole entry, looked up): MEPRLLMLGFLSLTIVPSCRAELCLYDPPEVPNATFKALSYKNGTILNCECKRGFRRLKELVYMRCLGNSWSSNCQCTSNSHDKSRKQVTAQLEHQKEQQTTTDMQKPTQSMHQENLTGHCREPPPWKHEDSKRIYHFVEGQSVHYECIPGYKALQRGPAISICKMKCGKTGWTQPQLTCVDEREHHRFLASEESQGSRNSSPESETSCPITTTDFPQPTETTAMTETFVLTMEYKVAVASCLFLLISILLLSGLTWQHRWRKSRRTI
T2 sequence (P16297 whole entry, looked up): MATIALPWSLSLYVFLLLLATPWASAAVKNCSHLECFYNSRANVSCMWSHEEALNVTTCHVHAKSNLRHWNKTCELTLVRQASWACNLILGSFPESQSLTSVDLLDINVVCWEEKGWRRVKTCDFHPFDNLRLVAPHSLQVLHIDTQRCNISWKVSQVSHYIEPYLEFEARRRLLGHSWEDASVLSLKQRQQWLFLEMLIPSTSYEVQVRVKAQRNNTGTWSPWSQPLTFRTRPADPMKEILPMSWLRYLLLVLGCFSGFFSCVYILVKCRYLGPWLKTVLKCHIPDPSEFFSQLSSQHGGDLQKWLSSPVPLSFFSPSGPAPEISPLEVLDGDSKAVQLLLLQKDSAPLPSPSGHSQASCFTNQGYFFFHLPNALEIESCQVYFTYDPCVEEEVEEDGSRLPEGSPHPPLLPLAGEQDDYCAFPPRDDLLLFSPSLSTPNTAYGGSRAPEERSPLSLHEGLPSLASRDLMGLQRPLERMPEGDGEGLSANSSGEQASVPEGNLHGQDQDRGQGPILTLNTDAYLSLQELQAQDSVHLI
T2 sequence (P34902 whole entry, looked up): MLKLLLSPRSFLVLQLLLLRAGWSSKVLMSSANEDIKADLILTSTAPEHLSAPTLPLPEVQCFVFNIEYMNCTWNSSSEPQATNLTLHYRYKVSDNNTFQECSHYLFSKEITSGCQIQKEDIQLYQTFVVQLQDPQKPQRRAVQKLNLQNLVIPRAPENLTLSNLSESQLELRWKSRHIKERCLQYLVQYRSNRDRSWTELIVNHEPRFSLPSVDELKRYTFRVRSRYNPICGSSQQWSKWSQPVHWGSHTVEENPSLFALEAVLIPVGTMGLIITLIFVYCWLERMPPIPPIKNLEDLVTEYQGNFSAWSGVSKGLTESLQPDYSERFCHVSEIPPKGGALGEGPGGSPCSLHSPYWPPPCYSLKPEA

T3: His-tagged recombinant CD25 (human, UniProt P01589 22-213, limits assumed)
T3 construct: Captured via TrisNTA Biotin on SA chips; also called IL-2 receptor alpha; IL-2Rα; not shown: His tag
T3 sequence (looked up): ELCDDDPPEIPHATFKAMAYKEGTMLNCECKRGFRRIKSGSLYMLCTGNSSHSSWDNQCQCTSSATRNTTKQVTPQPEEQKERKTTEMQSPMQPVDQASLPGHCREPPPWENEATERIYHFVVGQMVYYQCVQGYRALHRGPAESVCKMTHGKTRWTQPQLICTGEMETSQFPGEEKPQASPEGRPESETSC


Key:
[1] = target: T1, trimeric IL-2 receptor on HEK-Blue IL-2 …; experiment: cell-based or functional assay
[2] = target: T2, IL-2R on murine splenocytes (C57BL/6); experiment: cell-based or functional assay
[3] = target: T4, monoclonal anti-human IL-2 antibody 5344 (BD, 555051); experiment: sandwich ELISA, 5344 coated, fusion protein titrated, anti-human IgG-Peroxidase
T4 construct: Coated capture antibody
Procedure: The antibody-IL-2 fusion proteins were tested on a sandwich ELISA, to assess the correct folding of the IL-2 portion. […] The obtained signals (Absorbance 450-570 nm) were plotted as function of antibody-IL-2 fusion protein concentration (as log value). The $EC50$ values were interpolated fitting the data with GraphPad Prism 8 (Table 6).

[4] = target: T3, His-tagged recombinant CD25; experiment: SPR (BIAcore 3000), His-tagged CD25 captured, kinetic titration of fusion protein
Procedure: HEK-Blue™ IL-2 reporter cells (Invivogen) were incubated with a dilution series (1:3 dilutions from 0.56 nM) of antibody-IL-2 fusion protein in growth medium for 20 hours Example 4. IL-2 fusion protein in vitro selectivity Binding affinities to CD25 measured by SPR Binding affinities of the IL-2 fusion protein to the IL-2 receptor CD25 were measured by SPR (BIAcore 3000, GE Healthcare, 33-1140587-3682). His-tagged recombinant CD25 was captured via TrisNTA Biotin on SA chips and Kinetic titration of IL-2 fusion proteins of the present invention was performed reaching concentrations up to 500 nM.

[5] = target: monoclonal anti-human IL-2 antibody Nara1; experiment: ELISA, Nara1 coated, fusion protein titrated, anti-human IgG-Peroxidase; lowest concentration with signal at or above the cut point

Row | EC50 (M), SEAP of HEK-Blue IL-2 reporter cells [1] [M] | EC50 CD8 cells (nM), pSTAT5 MFI [2] [nM] | EC50 NK cells (nM), pSTAT5 MFI [2] [nM] | EC50 Treg cells (nM), pSTAT5 MFI [2] [nM] | EC50 [3] [nM] | Lowest concentration (nM) OD450-570 ≥ CP [5] [nM] | Binder | binding result [4]
1 | 3.9e-12 | 18.6 | 1.5 | 4.8 | 0.2 | 0.83 | GYG794 (other, also called IL-2 fusion protein to antibody B, linker 1 2 AA, linker 2 3 AA) heavy: QVQLVESGGGVVQPGRSLRLSCAASGYTFSSYLIEWVRQAPGKGLEWVAVINPGSGGTNYADSVKGRFTISADKSKNTAYLQMNSLRAEDTAVYYCARWRGDGYYAYFDVWGQGTTVTVSSASTKGPSVFPLAPSSKSTSGGTAALGCLVKDYFPEPVTVSWNSGALTSGVHTFPAVLQSSGLYSLSSVVTVPSSSLGTQTYICNVNHKPSNTKVDKRV[omitted - human IgG1 Fc] light: EIVLTQSPATLSVSPGERATLSCRASQSVSYGGNFHLRPRDLISNINVIVLELKGSETTFMCEYADETATIVEFLNRWITFSQSIISTLTPTSSSTKKTQLQLEHLLLDLQMILNGINNYKNPKLTRMLTFKFYMPKKATELKHLQCLEEELKPLEEVLNLAQSKGGGDSYMNWYQQKPGQAPRLLIYAASNLASGIPARFSGSGSGTEFTLTISSLQSEDAAVYYCQQSNEDPYTFGGGTKVEIKRTVAAPSVFIFPPSDEQLKSGTASVVCLLNNFYPREAKVQWKVDNALQSGNSQESVTEQDSKDSTYSLSSTLTLSKADYEKHKVYACEVTHQGLSSPVTKSFNRGEC | no binding (tested: concentrations up to 500 nM)
2 | 3.2e-12 | 6.6 | 2.3 | 7.6 | 0.16 | 0.83 | PGO345 (other, also called IL-2 fusion protein to antibody A, linker 1 6 AA, linker 2 7 AA) heavy: EVQLVQSGAEVKKPGESLKISCKGSGYAFTNYLIEWVRQMPGKGLEWMGVINPGSGGTNYNEKFKGQVTISADKSISTAYLQWSSLKASDTAMYYCARWRGEGYYAYFDVWGQGTTVTVSSASTKGPSVFPLAPSSKSTSGGTAALGCLVKDYFPEPVTVSWNSGALTSGVHTFPAVLQSSGLYSLSSVVTVPSSSLGTQTYICNVNHKPSNTKVDKRV[omitted - human IgG1 Fc with changes] light: AIRLTQSPSSFSASTGDRVTITCKASQSVDYGGGGSGNFHLRPRDLISNINVIVLELKGSETTFMCEYADETATIVEFLNRWITFSQSIISTLTPTSSSTKKTQLQLEHLLLDLQMILNGINNYKNPKLTRMLTFKFYMPKKATELKHLQCLEEELKPLEEVLNLAQSKGGGGSGGDSYMNWYQQKPGKAPKLLIYAASNLESGVPSRFSGSGSGTDFTLTISSLQSEDFATYYCQQSNEDPYTFGGGTKVEIKRTVAAPSVFIFPPSDEQLKSGTASVVCLLNNFYPREAKVQWKVDNALQSGNSQESVTEQDSKDSTYSLSSTLTLSKADYEKHKVYACEVTHQGLSSPVTKSFNRGEC | 

Second part, the binder before the results:

Row | Binder | EC50 (M), SEAP of HEK-Blue IL-2 reporter cells [1] [M] | EC50 CD8 cells (nM), pSTAT5 MFI [2] [nM] | EC50 NK cells (nM), pSTAT5 MFI [2] [nM] | EC50 Treg cells (nM), pSTAT5 MFI [2] [nM] | EC50 [3] [nM] | Lowest concentration (nM) OD450-570 ≥ CP [5] [nM] | binding result [4]
3 | XUB802 (other, also called IL-2 fusion protein to antibody A, linker 1 19 AA, linker 2 20 AA) heavy: EVQLVQSGAEVKKPGESLKISCKGSGYAFTNYLIEWVRQMPGKGLEWMGVINPGSGGTNYNEKFKGQVTISADKSISTAYLQWSSLKASDTAMYYCARWRGEGYYAYFDVWGQGTTVTVSSASTKGPSVFPLAPSSKSTSGGTAALGCLVKDYFPEPVTVSWNSGALTSGVHTFPAVLQSSGLYSLSSVVTVPSSSLGTQTYICNVNHKPSNTKVDKRV[omitted - human IgG1 Fc with changes] light: AIRLTQSPSSFSASTGDRVTITCKASQSVDYGGGGSGGGGSGGGGSGGGGNFHLRPRDLISNINVIVLELKGSETTFMCEYADETATIVEFLNRWITFSQSIISTLTPTSSSTKKTQLQLEHLLLDLQMILNGINNYKNPKLTRMLTFKFYMPKKATELKHLQCLEEELKPLEEVLNLAQSKGGGGSGGGGSGGGGSGGGGSDSYMNWYQQKPGKAPKLLIYAASNLESGVPSRFSGSGSGTDFTLTISSLQSEDFATYYCQQSNEDPYTFGGGTKVEIKRTVAAPSVFIFPPSDEQLKSGTASVVCLLNNFYPREAKVQWKVDNALQSGNSQESVTEQDSKDSTYSLSSTLTLSKADYEKHKVYACEVTHQGLSSPVTKSFNRGEC | 3.32e-12 | 17.1 | 5.8 | 12.1 | 0.15 | 0.28 | 
4 | DRV470 (other, also called IL-2 fusion protein to antibody A, linker 1 13 AA, linker 2 14 AA) heavy: EVQLVQSGAEVKKPGESLKISCKGSGYAFTNYLIEWVRQMPGKGLEWMGVINPGSGGTNYNEKFKGQVTISADKSISTAYLQWSSLKASDTAMYYCARWRGEGYYAYFDVWGQGTTVTVSSASTKGPSVFPLAPSSKSTSGGTAALGCLVKDYFPEPVTVSWNSGALTSGVHTFPAVLQSSGLYSLSSVVTVPSSSLGTQTYICNVNHKPSNTKVDKRV[omitted - human IgG1 Fc with changes] light: AIRLTQSPSSFSASTGDRVTITCKASQSVDYGGGGSGGGGSGGGNFHLRPRDLISNINVIVLELKGSETTFMCEYADETATIVEFLNRWITFSQSIISTLTPTSSSTKKTQLQLEHLLLDLQMILNGINNYKNPKLTRMLTFKFYMPKKATELKHLQCLEEELKPLEEVLNLAQSKGGGGSGGGGSGGGGDSYMNWYQQKPGKAPKLLIYAASNLESGVPSRFSGSGSGTDFTLTISSLQSEDFATYYCQQSNEDPYTFGGGTKVEIKRTVAAPSVFIFPPSDEQLKSGTASVVCLLNNFYPREAKVQWKVDNALQSGNSQESVTEQDSKDSTYSLSSTLTLSKADYEKHKVYACEVTHQGLSSPVTKSFNRGEC | 3.61e-12 | 7.9 | 2.4 | 10.3 | 0.1 | 0.83 | 
